From PubChem BioAssay AID1345082 (National Center for Advancing Translational Sciences (NCATS), 2018)
Where “and” joins values, the source holds several entries; their conditions need not be identical. Identical values can stand only once. Out of some 94,000 compounds screened, about 4,000 (4.3%) were called active. The shares of active, inactive and inconclusive entries below differ from those in the screen. The call rests on the fitted dose curve; in most records, active means well fitted inhibition curve with a large enough effect; inconclusive means small, poorly fitted or top-dose-only effect; inactive means no such curve, though single readings can be large or run the other way. Potencies beside an inconclusive call are fits to weak or partial responses and may not hold up.

Test: Cytotoxic Profiling in NIH 3T3 Cell Line of Diverse Libraries Using Quantitative High-Throughput Screening; further: nearly all actives have a fitted effect of over 55% in size
Conditions: NIH 3T3 viability, CellTiter-Glo ATP luminescence, 48-72 h; activity change, negative = cytotoxicity: at 96.7 µM (top of the series); series mostly up to 96.7 µM
Summary of the method: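 First NIH 3T3 cells are plated at 400 cells/well; next compound is pinned in; then plates incubate 48 or 72 hr at 37 °C; finally CellTiter-Glo is added and luminescence read after 10 min.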
On the % scale 0 is the no-effect control and ±100 the full control effect; potency means the concentration at half of the fitted maximal effect; tags describe the fitted curve by direction and shape.

Row | Compound | activity change, negative = cytotoxicity | Potency | outcome
1 | CCCCNC(=O)CCc1cc2cc(OC)ccc2[nH]c1=O | inactive: -1.79% |  | 
2 | CN1C(=O)C2(CCN(CC3CCCCC3)C2)c2ccccc21 (stereo not given) |  | inconclusive: 89.1 µM [inhibitor, partial curve, poor fit] | 
3 | CC(C)C[C@@H]1N[C@H](C(=O)NCCN(C)C)Cc2cn(Cc3ccncc3)c3cccc1c23 |  | active: 28.2 µM | 
4 | COc1ccc(CNC(=O)c2noc(-c3ccc(C)cc3)n2)cc1OC |  | inconclusive: 5.62 µM [inhibitor, full curve] | 
5 | COc1ccccc1-c1cccc(C(=O)N2CCN(C(=O)c3ccc(C(F)(F)F)cc3)CC2)c1 |  | inconclusive: 39.8 µM [inhibitor, partial curve] | 
6 | Fc1ccccc1CCNc1cc(Cl)nc2ccnn12 |  | inconclusive: 39.8 µM [inhibitor, partial curve] | 
7 | COc1cccc(S(=O)(=O)N2CCC3(CC2)CC(CC(=O)N2CCCC2)CCO3)c1 (stereo not given) |  | inconclusive: 44.7 µM [inhibitor, partial curve, poor fit] | 
8 | OC(c1ccccc1)c1nc(Nc2ccc(C(F)(F)F)cc2)n[nH]1 (stereo not given) |  | inconclusive: 70.8 µM [inhibitor, partial curve, poor fit] | 
9 | CC1=C[C@@H](CNS(=O)(=O)Cc2ccccc2)[C@H](C(C)C)C[C@H]1CC(=O)N1CCOCC1 |  | inconclusive: 70.8 µM [inhibitor, single point] | 
10 | O=C(Cc1ccc(Cl)cc1)NC1CCN(c2nccc(Nc3ccccc3Cl)n2)CC1 |  | inconclusive: 50.1 µM [inhibitor, partial curve, poor fit] | 
11 | CCN1c2cc(C(=O)N3CCN(C4CCCCC4)CC3)ccc2C(=O)N2CCCCC21 (stereo not given) | inactive: -14.1% |  | 
12 | Cc1ccn(CC(=O)N[C@@H]2CN(c3ccncn3)C[C@H]2CN(C)C)n1 | inactive: 1.78% |  | 
13 | Cc1ccccc1CN1CCC(CN(Cc2cccnc2)C(=O)C2CC=CCC2)CC1 (stereo not given) |  |  | inactive
14 | CC(C)NC(=O)c1nc(-c2ccsc2)c2ccccn12 |  | inconclusive: 89.1 µM [inhibitor, partial curve] | 
15 | CO[C@H]1[C@@H]2CN(Cc3ccccc3)C[C@@H]2[C@@H]2O[C@H]1C[C@@H]2c1ccc(F)cc1 |  | inconclusive: 50.1 µM [inhibitor, partial curve, poor fit] | 
16 | O=C(Cc1ccc(N(Cc2ccccc2)C(=O)c2ccco2)cc1)NCCc1ccccc1 |  | inconclusive: 70.8 µM [inhibitor, partial curve, poor fit] | 
17 | CC(C)(C)c1ccc(C(=O)Nc2ccc(C(O)[C@H]3COCC(=O)N3)cc2)cc1 (stereo not given in full) |  | inconclusive: 63.1 µM [inhibitor, partial curve, poor fit] | 
18 | N#Cc1ccc(C(=O)Nc2ccc([C@H]3OCC(=O)N(Cc4ccc(F)cc4)[C@@H]3CO)cc2)cc1 |  | inconclusive: 31.6 µM [inhibitor, partial curve, poor fit] | 
19 | O=C(Nc1ccc(Cl)cc1)N1CCCN(c2ccc3nnc(-c4ccccc4)n3n2)CC1 |  | active: 28.2 µM | 
20 | COc1cc(=O)n2c(c1C(=O)Nc1ccc(N(C)C)cc1)CCCC2 | inactive: -29.7% |  | 
21 | CC(C)N1CCC(O)(c2csc(CN3CCc4ccccc4C3)n2)CC1 |  | inconclusive: 126 µM [inhibitor, single point] | 
22 | O=C(c1cc(Br)cn2ccnc12)N1CCN(c2ncccn2)CC1 |  | inconclusive: 79.4 µM [inhibitor, single point] | 

Row | Compound | activity change, negative = cytotoxicity | Potency | outcome
23 | COCC1CN(C2CCC2)CC12CCN(C(=O)c1cccs1)CC2 (stereo not given) |  | inconclusive: 70.8 µM [inhibitor, single point] | 
24 | COC(=O)c1ccc(CN2C(=O)[C@@H]3C[C@@H](O)CN3C3(CN(Cc4cccc(OC(F)(F)F)c4)C3)C2=O)cc1 |  | inconclusive: 44.7 µM [inhibitor, partial curve] | 
25 | CCN(Cc1ccc(C)o1)C(=O)c1ccc2nc(-c3ccc(F)cc3)cn2c1 |  | inconclusive: 50.1 µM [inhibitor, partial curve, poor fit] | 
26 | CCOC(=O)CCNC(=O)N1CCC(N2C(=O)C3(CCCCC3)C2c2ccccc2)CC1 (stereo not given) | inactive: -27.2% |  | 
27 | O=C1NCCCCCCN(C(=O)NCc2ccccc2)[C@H]2C[C@H](c3nc(-c4cccnc4)no3)C[C@@H]12 |  | inconclusive: 35.5 µM [inhibitor, partial curve] | 
28 | c1ccc(OCCNc2nc(-c3cccnc3)nc3c2CCNCC3)cc1 |  | active: 31.6 µM | 
29 | Cc1ccc(CC(=O)N2CCC(c3n[nH]c(=O)n3-c3ccc(C)cc3)CC2)cc1 |  | inconclusive: 6.31 µM [inhibitor, full curve, poor fit] | 
30 | Cc1noc(C)c1CO[C@@H]1COCC[C@H]1NC(=O)c1cccc(=O)[nH]1 | inactive: -9.16% |  | 
31 | COc1ccc(OC2CCN(C(C)=O)CC2)c(C(=O)NCCc2ccccc2OC)c1 |  | inconclusive: 56.2 µM [inhibitor, partial curve, poor fit] | 
32 | O=C(Cn1ccn2nc(-c3ccccc3)c(CO)c2c1=O)Nc1ccc2c(c1)OCCO2 |  | inconclusive: 70.8 µM [inhibitor, partial curve, poor fit] | 
33 | COc1cccc(-c2cc3c(=O)n(CCNC(=O)c4ccc(C(C)(C)C)cc4)ccn3n2)c1 | inactive: -22.6% |  | 
34 | Cn1cnnc1CC1CCCNC1 (stereo not given) | inactive: -9.14% |  | 
35 | CC(C)OCCCNc1ncnc2c1CN(C1CCCNCC1)C(=O)CN2C (stereo not given) | inactive: -15.3% |  | 
36 | CC(C)c1ccc(CC(=O)N2CCCc3ncc(C(=O)NCC4CCCO4)cc32)cc1 (stereo not given) |  | inconclusive: 89.1 µM [inhibitor, partial curve] | 
37 | COCCn1ccc2c(C3=CCOCC3)nc(-c3cccc(CO)c3)cc21 |  | active: 12.6 µM | 
38 | COc1cccc(NC(=O)CN2C(=O)NC3(CCC(C)CC3)C2=O)c1 (stereo not given) |  | inconclusive: 50.1 µM [inhibitor, partial curve, poor fit] | 
39 | COc1cccc(CNC(=O)c2ccc3nnc(Cc4ccco4)n3c2)c1 |  | inconclusive: 100 µM [inhibitor, partial curve, poor fit] | 
40 | CC(C)(C)C(=O)N1CCC2(CNS(=O)(=O)c3cnccc3O2)C1 (stereo not given) |  |  | inactive
41 | COc1ccc(CN2CCCC(c3nn(-c4ccc(OC)cc4)c(=O)[nH]3)C2)cc1 (stereo not given) |  | inconclusive: 44.7 µM [inhibitor, partial curve, poor fit] | 
42 | CC(C)Cn1c(=O)c(C(=O)Nc2ccc(F)cc2)nc2cccnc21 | inactive: -14.1% [at 138 µM] |  | 
43 | C#CCNC(=O)C1CCN(Cc2ccccc2-c2ccccc2F)CC1 |  | inconclusive: 79.4 µM [inhibitor, partial curve, poor fit] | 
44 | COc1ccc(CNC(=O)C2CN(c3ccc(Cl)cc3)C(=O)N2)cc1 (stereo not given) | inactive: -16.8% |  | 

Row | Compound | activity change, negative = cytotoxicity | Potency | outcome
45 | O=C(NC1CC1)c1ccccc1OC1CN(Cc2cccc(C(F)(F)F)c2)C1 |  | inconclusive: 56.2 µM [inhibitor, partial curve, poor fit] | 
46 | COc1ccccc1CNC(=O)[C@@H]1Cc2c[nH]c3cccc(c23)[C@H](CC(C)C)N1 |  | active: 28.2 µM | 
47 | O=C(NC1CCCCC1)N1CCC(c2nc(C3CCOCC3)no2)CC1 | inactive: -13.8% |  | 
48 | Cc1cc(OCC(=O)c2ccc3c(c2)N(CC(=O)NCC2CCCO2)C(=O)CO3)ccc1C(C)C (stereo not given) |  | inconclusive: 44.7 µM [inhibitor, partial curve, poor fit] | 
49 | COc1ccc(NC(=O)N2CCc3c(C(=O)N(C)C)cccc32)cc1 |  | inconclusive: 56.2 µM [inhibitor, partial curve, poor fit] | 
50 | Cc1ccc(-c2ccccc2CN2CCC(C(=O)N3CCC(c4ccccc4)CC3)CC2)cc1Cl |  | inconclusive: 44.7 µM [inhibitor, partial curve, poor fit] | 
51 | CCc1nc2c(c(-c3ccc(O)cc3)n1)CN(Cc1ccc(F)cc1)CC2 |  | inconclusive: 44.7 µM [inhibitor, partial curve, poor fit] | 
52 | O=C(Nc1ccccc1)N1CCn2c(nn(-c3ccc(C(F)(F)F)cc3)c2=O)C1 |  | inconclusive: 39.8 µM [inhibitor, partial curve] | 
53 | Cc1ccc(NC(=O)Nc2ccc(C)n(CC(=O)Nc3ccc(C)cc3C)c2=O)cc1 | inactive: 1.51% |  | 
54 | Cc1c(Cl)cccc1NC(=O)CN1C(=O)NC(c2ccc(Cl)cc2)C2=C1COC2=O (stereo not given) |  | inconclusive: 50.1 µM [inhibitor, partial curve, poor fit] | 
55 | O=C1Cc2c(-c3ccccc3Oc3ccccc3)n[nH]c2CN1Cc1ccccn1 |  | inconclusive: 79.4 µM [inhibitor, partial curve] | 
56 | O=C(Nc1cccc(C(F)(F)F)c1)N[C@H]1[C@H](O)[C@@H](N2CCOCC2)[C@@H]2OC[C@H]1O2 | inactive: -8.46% [at 174 µM] |  | 
57 | O=C(Nc1ccccc1)NC1CCN(Cc2cccc(-c3cccs3)c2)CC1 |  | active: 20 µM and active: 14.1 µM | 
58 | COc1ccc(-c2nc(C(C)C)nc3c2CCN([S+](=O)([O-])c2cccs2)CC3)cc1 |  | inconclusive: 44.7 µM [inhibitor, partial curve, poor fit] | 
59 | O=C(c1ccccc1)N1CCn2ncc(C(=O)N3CCOCC3)c2C1 |  | inconclusive: 79.4 µM [inhibitor, partial curve, poor fit] | 
60 | COc1ccc(F)cc1-c1cccc(C(=O)NCC(=O)NC2CCCCCC2)c1 |  | inconclusive: 50.1 µM [inhibitor, partial curve, poor fit] | 
61 | O=C(NCc1ccccc1)Nc1cccc(-c2nnc3n2CCCC3)c1 | inactive: -14.2% |  | 
62 | O=C(c1ccccc1OCC1CCCN(C2CCCCC2)C1)N1CCCC1 (stereo not given) | inactive: -12.8% |  | 
63 | CCOCC1(C)COc2ccc(C(=O)N(C)c3ccccc3)cc2N1 (stereo not given) | inactive: -17.6% [at 138 µM] |  | 
64 | CC(=O)c1cccc(NC(=O)c2cc3c(n2C)CCN(Cc2cccc(F)c2)C3)c1 | inactive: -28.4% |  | 
65 | Cc1nnc(NC(=O)C2CC(=O)N(c3n[nH]c4cccc(F)c34)C2)s1 (stereo not given) | inactive: -18.2% |  | 
